# Results as given in the supplement of paper PMC9446081.
# About 220 (0.56%) of roughly 39,000 compounds showed activity. Some of the results follow.
# System: Escherichia coli K-12 BW25113
# Assay: relative growth (OD600 normalised to plate interquartile mean) (fraction); higher = less growth inhibition, active = 0.2 or less
# Conditions: 50 µM; LB; incubation time: overnight (16-24 h)
# 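Further: static incubation at 37 °C against the wild-type strain, values averaged over two biological replicates.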
row,Compound,relative growth
1,C[C@H]1CN([C@@H](C)CO)C(=O)c2cc(NS(=O)(=O)c3ccc(F)cc3)ccc2O[C@H]1CN(C)Cc1ccc(Cl)c(Cl)c1,inactive: 0.509
2,COc1ccc(S(=O)(=O)Nc2ccc3c(c2)C(=O)N([C@H](C)CO)C[C@@H](C)[C@H](CN(C)C(=O)Nc2cccc4ccccc24)O3)cc1,inactive: 0.892
3,CC(=O)OC[C@H](N)C(=O)O,inactive: 1.04
4,C[C@@H]1CN([C@H](C)CO)C(=O)CCCn2nncc2CO[C@H]1CN(C)S(=O)(=O)c1ccc(C#N)cc1,inactive: 1
5,C=CCC[C@@H](Cc1ccc(F)cc1)C(=O)O[C@H](CNC(=O)[C@@H](CC=C)CC(=O)N(CCO)Cc1ccccc1)c1ccccc1,inactive: 1.11
6,C[C@@H]1CN([C@H](C)CO)C(=O)c2cc(NS(=O)(=O)c3cccs3)ccc2O[C@@H](C)CCCCO[C@@H]1CN(C)S(C)(=O)=O,inactive: 1.05
7,COc1ccc(S(=O)(=O)Nc2ccc3c(c2)C(=O)N([C@H](C)CO)C[C@H](C)[C@H](CN(C)Cc2ccc(C(=O)O)cc2)OCCCC[C@@H](C)O3)cc1,inactive: 0.978
8,Cc1ncc(NC(=O)c2ccc(CN3CCN(C)CC3)c(C(F)(F)F)c2)cc1Nc1nccc(-c2cccnc2)n1,inactive: 0.954
9,COc1ccc2c3c([nH]c2c1)[C@@H](CO)N(C[C@]13CCN(CC1)CC1CCCC1)S(=O)(=O)c1cn(cn1)C,inactive: 1.01
10,Cc1ccc(S(=O)(=O)Nc2ccc3c(c2)C(=O)N([C@H](C)CO)C[C@@H](C)[C@H](CN(C)C(=O)Nc2cccc4ccccc24)OCCCC[C@H](C)O3)cc1,inactive: 1.04
11,C=CCNC(N)=S,inactive: 0.947
12,C[C@H]1CN([C@@H](C)CO)C(=O)Cc2cc(NC(=O)C3CC3)ccc2O[C@H]1CN(C)C(=O)Nc1ccc2c(c1)OCO2,inactive: 0.996
13,C[C@@H]1CCCCO[C@@H](CN(C)S(=O)(=O)c2cn(C)cn2)[C@@H](C)CN([C@@H](C)CO)C(=O)c2cc(NS(=O)(=O)c3cn(C)cn3)ccc2O1,inactive: 1
14,FC(F)(F)c1ccccc1-c1ncc(-c2ccccc2)o1,inactive: 0.995
15,O=C(C[C@@H]1C[C@@H]2c3cc(NC(=O)c4ccc5c(c4)OCO5)ccc3O[C@@H]2[C@H](CO)O1)NCC(F)(F)F,inactive: 0.955
16,C[C@H](CO)N1C[C@H](C)[C@H](CN(C)CC2CCCCC2)OCCCC[C@H](C)Oc2ccc(NS(=O)(=O)c3ccccc3)cc2C1=O,inactive: 0.975
17,C1CN(C2CCOCC2)CCN1,inactive: 1.03
18,C[C@H](CO)N1C[C@H](C)[C@H](CN(C)C(=O)Nc2cccc3ccccc23)Oc2ccc(NC(=O)Nc3ccc4c(c3)OCO4)cc2CC1=O,inactive: 0.97
19,C[C@H]1CN([C@@H](C)CO)C(=O)c2cc(NC(=O)Cn3cnnn3)ccc2O[C@H]1CN(C)Cc1ccc(C(=O)O)cc1,inactive: 1
20,NC(=O)N1Cc2nccn2C[C@H](Cn2ncccc2=O)C1,inactive: 0.969
21,C[N+](C)(C)CCO,inactive: 1.03

row,Compound,relative growth
1,CO[C@H]1O[C@H](CO)[C@@H](OC(=O)Nc2ccc(Br)cc2)[C@@H]2OC(=O)[C@H](Cc3cccc(Br)c3)C/C=C/C[C@@H](Cc3cccc(Br)c3)C(=O)O[C@@H]12,inactive: 1.03
2,Cc1noc(C)c1S(=O)(=O)Nc1ccc2c(c1)CC(=O)N([C@H](C)CO)C[C@@H](C)[C@H](CN(C)C(=O)Nc1ccccc1)O2,inactive: 1.01
3,CC(C)NC(=O)N(C)C[C@@H]1Oc2c(NS(=O)(=O)c3cccs3)cccc2C(=O)N([C@@H](C)CO)C[C@H]1C,inactive: 0.981
4,CN(C)Cc1cn(CC[C@@H]2CC[C@H](N)[C@@H](CO)O2)nn1,inactive: 0.996
5,C[C@@H]1CCCCO[C@H](CN(C)C(=O)C2CCCCC2)[C@H](C)CN([C@H](C)CO)C(=O)c2cc(NC(=O)C3CCCCC3)ccc2O1,inactive: 1.02
6,COc1ccc(C#Cc2ccc3c(c2)O[C@@H](CN(C)C(=O)c2ccccn2)[C@H](C)CN([C@@H](C)CO)S3(=O)=O)cc1,inactive: 1.04
7,O=C(CCCCCNC(=O)OCc1ccc([C@H]2[C@H](C(=O)NCc3ccccc3)c3ccccc3C(=O)N2Cc2ccccc2)cc1)NO,inactive: 1.02
8,CC[C@@H](C)[C@H]1NC(=O)NC1=O,inactive: 0.938
9,C[C@H](CO)N1C[C@H](C)[C@@H](CN(C)Cc2ccncc2)Oc2ccc(NC(=O)Cn3cnnn3)cc2C1=O,inactive: 1.02
10,C[C@@H]1CN([C@H](C)CO)S(=O)(=O)c2ccc(C#Cc3cccc(F)c3)cc2O[C@@H]1CN(C)C(=O)CN1CCOCC1,inactive: 1.01
11,C[C@H](O)C#Cc1ccc2c(c1)O[C@H](CN(C)C(=O)C1CCCCC1)[C@H](C)CN([C@H](C)CO)S2(=O)=O,inactive: 0.985
12,O=C(C[C@H]1CC[C@H]2[C@@H](COC[C@@H](O)CN2C(=O)C2CC2)O1)NCc1ccncc1,inactive: 0.963
13,Cc1cccc(NC(=O)Nc2ccc3c(c2)C(=O)N(C)[C@H]2CC[C@H](CC(=O)NCc4ccccc4Cl)O[C@H]2CO3)c1,inactive: 1.01
14,Cc1noc(C)c1NC(=O)Nc1ccc2c(c1)C(=O)N([C@H](C)CO)C[C@@H](C)[C@H](CN(C)S(=O)(=O)c1ccc(F)cc1)OCCCC[C@H](C)O2,inactive: 1.01
15,C[C@H]1CN([C@@H](C)CO)C(=O)c2cc(NC(=O)Cc3cn(C)c4ccccc34)ccc2O[C@H]1CN(C)Cc1ccc(C(F)(F)F)cc1,inactive: 1.04
16,CC1=C(C#N)C(=O)NC(=O)C1=NNc1ccc(S(N)(=O)=O)cc1,inactive: 0.987
17,C[C@H]1CN([C@@H](C)CO)C(=O)c2cc(NC(=O)Nc3ccccc3)ccc2O[C@@H]1CN(C)Cc1ccc(C(F)(F)F)cc1,inactive: 0.985
18,C[C@@H]1CN([C@H](C)CO)S(=O)(=O)c2ccc(C#Cc3ccc(F)cc3)cc2O[C@H]1CN(C)S(=O)(=O)c1ccc(F)cc1,inactive: 1.04
19,C[C@@H]1CN([C@@H](C)CO)C(=O)c2cc(NS(=O)(=O)c3ccc(Cl)cc3)ccc2O[C@@H](C)CCCCO[C@@H]1CN(C)C(=O)Nc1ccc2c(c1)OCO2,inactive: 1.01
20,Cc1ccc(S(=O)(=O)N(C)C[C@@H]2Oc3ccc(NC(=O)NC(C)C)cc3CC(=O)N([C@@H](C)CO)C[C@H]2C)cc1,inactive: 0.996
21,Cc1ccc(S(=O)(=O)N(C)C[C@@H]2Oc3c(NC(=O)NC(C)C)cccc3C(=O)N([C@@H](C)CO)C[C@@H]2C)cc1,inactive: 0.964

row,Compound,relative growth
1,C[C@H](CO)N1C[C@H](C)[C@@H](CN(C)Cc2ccc(C(F)(F)F)cc2)Oc2ccc(NC(=O)Nc3ccc(F)cc3)cc2CC1=O,inactive: 1.02
2,O=C(C[C@@H]1C[C@@H]2c3cc(NC(=O)Nc4ccccc4)ccc3O[C@@H]2[C@@H](CO)O1)NCCN1CCCCC1,inactive: 0.999
3,COc1ccccc1C(=O)Nc1ccc2c(c1)C(=O)N(C)[C@H]1CC[C@@H](CC(=O)NCCc3ccncc3)O[C@H]1CO2,inactive: 0.956
4,N[C@@H]1CN(c2c(F)cc3c(=O)c(C(=O)O)cn([C@@H]4C[C@@H]4F)c3c2Cl)CC12CC2,active: 0.0347
5,COc1ccc(CN(C)C[C@H]2OCCCC[C@@H](C)Oc3ccc(NC(=O)Nc4ccccc4)cc3C(=O)N([C@H](C)CO)C[C@@H]2C)cc1,inactive: 1
6,Cc1ccc(S(=O)(=O)N(C)C[C@@H]2OCCCC[C@H](C)Oc3ccc(NS(=O)(=O)c4ccc(Cl)cc4)cc3C(=O)N([C@H](C)CO)C[C@H]2C)cc1,inactive: 1.01
7,C[C@@H]1CN([C@H](C)CO)C(=O)Cc2cc(NC(=O)Nc3ccc(C(F)(F)F)cc3)ccc2O[C@H]1CN(C)Cc1ccc(-c2ccccc2)cc1,inactive: 1.01
8,COCC(=O)N1C[C@H](C)[C@@H](OC)CN(C)C(=O)c2ccc(NC(=O)c3ccc(F)cc3)cc2OC[C@@H]1C,inactive: 1
9,C[C@H]1CN([C@@H](C)CO)C(=O)CCCn2cc(nn2)CO[C@@H]1CN(C)S(=O)(=O)c1ccc(Oc2ccccc2)cc1,inactive: 0.999
10,Cn1nnnc1-c1ccco1,inactive: 1.05
11,C[C@H](CO)N1C[C@H](C)[C@@H](CN(C)Cc2ccc(F)cc2)OCc2ccccc2-c2c(n(C)c3ccccc23)C1=O,inactive: 0.992
12,CCS(=O)(=O)c1ccccc1C(N)=O,inactive: 0.988
13,C[C@@H]1CN([C@@H](C)CO)C(=O)Cc2cc(NC(=O)Nc3ccc(F)cc3)ccc2O[C@@H]1CN(C)S(=O)(=O)c1cn(C)cn1,inactive: 1.02
14,Cc1noc(C)c1NC(=O)Nc1ccc2c(c1)CC(=O)N([C@@H](C)CO)C[C@H](C)[C@H](CN(C)Cc1ccc(Oc3ccccc3)cc1)O2,inactive: 0.992
15,C[C@H](CO)N1C[C@H](C)[C@H](CN(C)Cc2ccc(C(F)(F)F)cc2)Oc2ccc(NC(=O)Cc3ccccc3)cc2CC1=O,inactive: 1.01
16,Cc1ccc(S(=O)(=O)Nc2ccc3c(c2)C(=O)N([C@H](C)CO)C[C@H](C)[C@@H](CN(C)Cc2ccc(Oc4ccccc4)cc2)O3)cc1,inactive: 0.938
17,C[C@@H]1CN([C@@H](C)CO)C(=O)c2cccc(NC(=O)NC3CCCCC3)c2O[C@@H]1CN(C)C(=O)Nc1cccc2ccccc12,inactive: 1.03
18,Cc1noc(C)c1NC(=O)N(C)C[C@H]1Oc2c(NS(=O)(=O)c3c(C)noc3C)cccc2C(=O)N([C@@H](C)CO)C[C@H]1C,inactive: 1.02
19,CC(=O)N(C)C[C@H]1Oc2ncc(C#C[C@H](C)O)cc2C(=O)N([C@@H](C)CO)C[C@@H]1C,inactive: 0.993
